Experimental data as given in the supplement of paper PMC4967469.
Lines with a small IC50 respond at low doses; fits outside the tested doses are given as limits. AUC is the area under the same curve over the 256-fold range up to the top dose, as a fraction; the more sensitive the line, the further below 1. For some of these results: The top dose, if marked as inferred, was calculated from the reported fits.

Experiments:
Test in all cases: Viability of human cancer cell lines after 72 h of drug (GDSC screen)
Tubastatin A = compound: CN1CCc2c(c3ccccc3n2Cc2ccc(C(=O)NO)cc2)C1 [Tubastatin A]; settings: top dose 20 µM
Method: (§1)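 Human cancer cell lines in 384-well plates, medium with 10% serum, drug for 72 h over a 256-fold dose range (nine 2-fold or five 4-fold steps up to the top dose). Adherent lines were fixed and stained with the nucleic acid dye Syto60, suspension lines read with resazurin; signal relative to control wells, capped at 0 and 100%. One two-parameter sigmoid per drug and line, fitted in a mixed model over all curves with the slope shared within a line.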

Rapamycin = compound: CO[C@H]1C[C@@H]2CC[C@@H](C)[C@@](O)(O2)C(=O)C(=O)N2CCCC[C@H]2C(=O)O[C@H]([C@H](C)C[C@@H]2CC[C@@H](O)[C@H](OC)C2)CC(=O)[C@H](C)/C=C(\C)[C@@H](O)[C@@H](OC)C(=O)[C@H](C)C[C@H](C)/C=C/C=C/C=C/1C [Rapamycin]; settings: top dose 0.1 µM; top dose inferred
Method: as §1

XL-880 = compound: COc1cc2c(Oc3ccc(NC(=O)C4(C(=O)Nc5ccc(F)cc5)CC4)cc3F)ccnc2cc1OCCCN1CCOCC1 [XL-880]; settings: top dose 5.12 µM; top dose inferred
Method: as §1

Z-LLNle-CHO = compound: CCCC[C@@H](C=O)NC(=O)[C@H](CC(C)C)NC(=O)[C@H](CC(C)C)NC(=O)OCc1ccccc1 [Z-LLNle-CHO]; settings: top dose 2.56 µM; top dose inferred
Method: as §1

IPA-3 = compound: Oc1ccc2ccccc2c1SSc1c(O)ccc2ccccc12 [IPA-3]; settings: top dose 32 µM; top dose inferred
Method: as §1

Temozolomide = compound: Cn1nnc2c(C(N)=O)ncn2c1=O [Temozolomide]; settings: top dose 30 µM
Method: as §1

CI-1040 = compound: O=C(NOCC1CC1)c1ccc(F)c(F)c1Nc1ccc(I)cc1Cl [CI-1040]; settings: top dose 10 µM; top dose inferred
Method: as §1

ZG-10 = compound: CN(C)C/C=C/C(=O)Nc1ccc(C(=O)Nc2cccc(Nc3nccc(-c4cccnc4)n3)c2)cc1 [ZG-10]; settings: top dose 10 µM; top dose inferred
Method: as §1

JW-7-52-1 = compound: CCC(=O)N1CCN(c2ccc(-n3c(=O)ccc4cnc5ccc(-c6cnc7ccccc7c6)cc5c43)cc2C(F)(F)F)CC1 [JW-7-52-1]; settings: top dose 1.2 µM; top dose inferred
Method: as §1

Cell Line	AUC (Tubastatin A)	IC50 (Tubastatin A)	AUC (Rapamycin)	IC50 (Rapamycin)	AUC (XL-880)	IC50 (XL-880)	AUC (Z-LLNle-CHO)	IC50 (Z-LLNle-CHO)	AUC (IPA-3)	IC50 (IPA-3)	AUC (Temozolomide)	IC50 (Temozolomide)	AUC (CI-1040)	IC50 (CI-1040)	AUC (ZG-10)	IC50 (ZG-10)	AUC (JW-7-52-1)	IC50 (JW-7-52-1)
KLE (endometrium, adherent)	0.936	> 20 µM	0.777	66.3 nM	0.701	1640 nM	0.65	529 nM	0.848	> 32 µM	0.975	> 30 µM	0.921	> 10 µM	–	–	–	–
UACC-812 (breast, adherent)	0.874	18.3 µM	0.9	> 100 nM	0.882	> 5120 nM	–	–	0.991	> 32 µM	–	–	–	–	–	–	–	–
TGBC1TKB (biliary tract, adherent)	0.988	> 20 µM	0.058	< 0.391 nM	0.741	1560 nM	0.71	624 nM	0.858	26.1 µM	0.988	> 30 µM	0.864	8.61 µM	0.798	4710 nM	–	–
TC-YIK (cervix, suspension)	–	–	0.973	> 100 nM	–	–	–	–	–	–	0.97	> 30 µM	0.842	5.7 µM	–	–	–	–
H-EMC-SS (chondrosarcoma, adherent)	0.958	> 20 µM	0.874	> 100 nM	0.402	159 nM	0.945	> 2560 nM	0.83	28.7 µM	0.979	> 30 µM	–	–	–	–	–	–
SNB75 (glioma, adherent)	0.953	> 20 µM	–	–	0.75	2410 nM	0.835	> 2560 nM	0.976	> 32 µM	0.976	> 30 µM	0.893	> 10 µM	0.676	2450 nM	0.413	38.7 nM
IST-MEL1 (melanoma, adherent)	0.833	16.5 µM	–	–	0.558	474 nM	0.796	1460 nM	0.842	29 µM	0.944	> 30 µM	0.862	> 10 µM	0.633	1570 nM	0.332	23.2 nM
LB1047-RCC (kidney, adherent)	0.944	> 20 µM	0.522	7.24 nM	0.543	425 nM	0.699	626 nM	0.954	> 32 µM	0.981	> 30 µM	0.789	5.04 µM	0.686	2220 nM	–	–
NCI-H1299 (large cell lung carcinoma, adherent)	0.982	> 20 µM	0.958	> 100 nM	0.765	2290 nM	–	–	0.781	16.6 µM	0.95	> 30 µM	–	–	–	–	–	–
ES6 (Ewing sarcoma, adherent)	0.947	> 20 µM	–	–	0.689	1240 nM	0.636	418 nM	0.823	25.1 µM	0.975	> 30 µM	0.949	> 10 µM	0.698	2600 nM	0.261	13 nM
SF126 (glioma, adherent)	0.981	> 20 µM	–	–	0.613	667 nM	0.815	1500 nM	0.842	24.2 µM	0.979	> 30 µM	0.807	5.45 µM	0.782	4430 nM	0.411	42.2 nM
EW-22 (Ewing sarcoma, adherent)	–	–	0.956	> 100 nM	–	–	–	–	–	–	0.987	> 30 µM	0.94	> 10 µM	0.671	1840 nM	–	–
GR-ST (lymphoblastic leukaemia, suspension)	0.799	12 µM	–	–	0.583	566 nM	0.893	> 2560 nM	0.736	11.1 µM	0.978	> 30 µM	0.781	5.1 µM	0.537	808 nM	0.394	36.1 nM
NTERA-2 cl.D1 (testis, adherent)	0.575	2 µM	0.213	0.908 nM	0.577	518 nM	0.697	569 nM	0.899	> 32 µM	0.908	> 30 µM	0.846	7.16 µM	0.489	584 nM	–	–
GI-1 (glioma, adherent)	0.894	> 20 µM	–	–	0.458	246 nM	0.946	> 2560 nM	0.879	30.5 µM	0.913	> 30 µM	0.96	> 10 µM	0.693	2110 nM	0.348	29 nM
ES4 (Ewing sarcoma, adherent)	0.95	> 20 µM	0.144	0.392 nM	0.672	1040 nM	0.777	1190 nM	0.852	30.6 µM	0.968	> 30 µM	0.846	8.96 µM	0.638	1600 nM	–	–
no-10 (glioma, adherent)	0.972	> 20 µM	–	–	0.809	3440 nM	0.681	579 nM	0.858	> 32 µM	0.975	> 30 µM	0.905	> 10 µM	0.692	2470 nM	0.288	16.3 nM
HCE-4 (oesophagus, adherent)	0.992	> 20 µM	0.912	> 100 nM	0.97	> 5120 nM	0.73	642 nM	0.783	11.5 µM	–	–	–	–	–	–	–	–
